Where a chain is given by its changes, count along the chain named.
B1: HEC-G33 (Fc fusion)
chain: YAEGTFTSDYSKLLEEEAVRLFIEWLLAGGGGGSGGGGSGGGGSA[here human IgG4 Fc with S228P F234A L235A (EU numbers) without letters]
B2: HEC-G43 (Fc fusion)
chain: B1 chain with A2G, K12I, L13Y, E15D, E16K, E17K, V19Q, L21D, I23V
B3: HEC-G45 (Fc fusion)
chain: B1 chain with A2G, K12I, L13Y, E15D, E16K, E17K, V19Q, L21D, I23V, L27I
B4: HEC-G52 (Fc fusion)
chain: B1 chain with A2G, K12I, L13Y, E15D, E16K, E17Q, V19Q, L21D, I23V
B5: HEC-G79 (Fc fusion)
chain: B1 chain with A2G, K12I, L13Y, E15D, E16K, E17K, V19Q, L21D
B6: HEC-G80 (Fc fusion)
chain: B1 chain with A2G, K12I, L13Y, E15D, E16K, E17K, V19Q, L21D, W25Y
B7: HEC-G13 (Fc fusion)
chain: B1 chain with A2S
B8: HEC-G14 (Fc fusion)
chain: B1 chain with A2S, L27V, A28K

The binders below were run against GLP-1R (UniProt P43220 24-463, limits assumed) (assay: cell-based or functional assay).

Binder	EC50, cAMP [nM]
B1	0.391
B2	0.961
B3	0.14
B4	2.72
B5	3.25
B6	1.25
B7	0.685
B8	0.114

These binders were tested against T1, GIPR (UniProt P48546 22-466, limits assumed) (assay: cell-based or functional assay).
T1 sequence (looked up): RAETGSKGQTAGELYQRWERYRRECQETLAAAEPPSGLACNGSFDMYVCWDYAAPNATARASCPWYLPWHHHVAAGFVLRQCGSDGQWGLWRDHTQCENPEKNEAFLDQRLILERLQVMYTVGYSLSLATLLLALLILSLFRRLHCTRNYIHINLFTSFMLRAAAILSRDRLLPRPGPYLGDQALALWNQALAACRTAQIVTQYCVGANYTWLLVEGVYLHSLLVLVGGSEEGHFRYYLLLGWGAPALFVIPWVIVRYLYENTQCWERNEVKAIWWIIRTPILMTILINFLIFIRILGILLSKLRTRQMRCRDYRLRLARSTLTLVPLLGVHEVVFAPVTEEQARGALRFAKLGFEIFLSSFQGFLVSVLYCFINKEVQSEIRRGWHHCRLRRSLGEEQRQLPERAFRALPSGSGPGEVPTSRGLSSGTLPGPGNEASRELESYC

Binder	EC50, cAMP [nM]
B1	2.23
B2	4.99
B3	2.42
B4	1.21
B5	0.779
B6	3.18
B7	1.73
B8	10.1

From patent US20250223331A1, “GLP-1/GIP DUAL-TARGETED POLYPEPTIDE AND FUSION PROTEIN AND APPLICATIONS THEREOF” (SUNSHINE LAKE PHARMA CO., LTD., priority 2021, published 2025)
